According to patent US7714106B2, “Neuropeptides and their use for pest control” (University of Florida Research Foundation, Inc., priority 1999, dated 2010):
For at least one compound, name, drawing or mass did not settle the structure. Residues, ends and D or L forms follow the SMILES beside them. No end group written: not given here.

Test system: first instar Aedes aegypti larvae
Test: Effect of NPF polypeptides on Aedes aegypti larvae (ingestion, mortality)
Assay type: in vivo
Details: microtiter plate, peptide 2 mg/ml to 0.04 mg/ml with Brewer's yeast, mortality at 24 hour intervals for 3 to 7 days, read-out: LC50 (mM) ± SEM
Excerpt: NPF polypeptides sharing sequence homology with NPF I and NPF II of the Colorado potato beetle (Leptinotarsa decemlineata) (Spittaels, et al. Insect Biochem. Mol. Biol., 26 (4):375-382, 1996) have been identified in the American cockroach (Periplaneta americana) (Veenstra and Lambrou, Biochem. Biophys. Res. Commun., 213 (2):519-524, 1995), mosquito (Aedes aegypti) (Stanek et al., Display Presentation, Entomological Society of America Annual Meeting, Montreal, Canada, Dec. 3-6, 2000), and fruit fly (Drosophila melanogaster), and their pesticidal activity was confirmed. Synthesized polypeptides corresponding to the native polypeptides of Colorado potato beetle (SEQ ID NO. 1), mosquito (SEQ ID NOs. 5 and 7), American cockroach (SEQ ID NOs. 9 and 11), and fruit fly (SEQ ID NOs. 13 and 15) were provided to first instar Aedes aegypti larvae for ingestion. Non-amidated versions of SEQ ID NOs. 5, 7, 9, 11, 13, and 15 (SEQ ID NOs. 6, 8, 10, 12, 14, and 16, respectively), as well as other functional equivalents (SEQ ID NOs. 17-24), were also provided for ingestion.
First instar Aedes aegypti larvae were assayed in a microtiter plate in 188 μl solution containing 160 μl of water, 10 μl of 2% Brewer's yeast, and NPF polypeptides of the subject invention at concentrations of 2 mg/ml to 0.04 mg/ml (Table 2). Mortality was determined at 24 hour intervals for 3 to 7 days. Controls were run with yeast solution lacking the NPF polypeptide.

Compound: C[C@@H](O)[C@H](NC(=O)[C@@H]1CCCN1C(=O)[C@@H]1CCCN1C(=O)[C@@H](N)CCCNC(=N)N)C(=O)O [SEQ ID NO. 23, Arg-Pro-Pro-Thr] (H-RPPT-OH; N-terminus and C-terminus assumed)
- LC50: 2.08 ± 0.15 mM

Compound: RSPSLRLRF-OH [SEQ ID NO. 18, Arg-Ser-Pro-Ser-Leu-Arg-Leu-Arg-Phe]
- LC50: 0.76 ± 0.04 mM

Compound: PSLRLRF-OH [SEQ ID NO. 20, Pro-Ser-Leu-Arg-Leu-Arg-Phe]
- LC50: 0.76 ± 0.051 mM

Compound: AQRSPSLRLRF-OH [SEQ ID NO. 16, Ala-Gln-Arg-Ser-Pro-Ser-Leu-Arg-Leu-Arg-Phe]
- LC50: 1.19 ± 0.11 mM

Compound: APQLRLRF-OH [SEQ ID NO. 8, Ala-Pro-Gln-Leu-Arg-Leu-Arg-Phe]
- LC50: 0.65 ± 0.06 mM

Compound: ANRSPSLRLRF-OH [SEQ ID NO. 10, Ala-Asn-Arg-Ser-Pro-Ser-Leu-Arg-Leu-Arg-Phe]
- LC50: 0.68 ± 0.037 mM

Compound: N=C(N)NCCC[C@H](NC(=O)[C@H](Cc1ccccc1)NC(=O)[C@@H](N)CCCNC(=N)N)C(=O)N[C@@H](Cc1ccccc1)C(=O)O [SEQ ID NO. 24, Arg-Phe-Arg-Phe] (H-RFRF-OH; N-terminus assumed)
- LC50: 0.81 ± 0.06 mM

Compound: ADRSPSLRLRF-OH [SEQ ID NO. 12, Ala-Asp-Arg-Ser-Pro-Ser-Leu-Arg-Leu-Arg-Phe]
- LC50: 0.607 ± 0.066 mM

Compound: RPPTRFRF-OH [SEQ ID NO. 6, Arg-Pro-Pro-Thr-Arg-Phe-Arg-Phe]
- LC50: 0.26 mM

Compound: PIRSPSLRLRF-OH [SEQ ID NO. 14, Pro-Ile-Arg-Ser-Pro-Ser-Leu-Arg-Leu-Arg-Phe]
- LC50: 0.553 ± 0.03 mM

Compound: LRLRF-OH [SEQ ID NO. 22, Leu-Arg-Leu-Arg-Phe]
- LC50: 1.59 ± 0.143 mM
